According to the RNAGym collection of RNA variant scans (doi:10.1073/pnas.2313332121):
Variants at the floor of the assay are shown more often than the library holds them.

B1: TPR 5TU (parent)
chain: GGAUCUUCUCGAUCUAACAAAAAAGACAAAUCUGCCACAAAGCUUGAGAGCAUCUUCGGAUGCAGAGGCGGCAGCCUUCGGUGGCGCGAUAGCGCCAACGUUCUCAACUAUGACACGCAAAACGCGUGCUCCGUUGAAUGGAGUUUAUCAUG

Variants of: B1
Assay: polymerase ribozyme fitness, log enrichment relative to wild type (log ratio); higher = more active; in vitro selection for triplet polymerase activity
Outline: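 A heterodimeric triplet polymerase ribozyme had each of its subunits mutagenized by PCR into a library, which was transcribed. One round of in vitro selection, done in triplicate, annealed each library with a biotinylated primer, its partner subunit and triplets, then incubated it frozen at −7 °C before gel excision of extended constructs, streptavidin-bead capture and RT-PCR. Fitness is the logarithm of genotype enrichment relative to wild-type enrichment, based on Illumina sequencing of inputs and outputs and inverse-variance-weighted replicate averages. A base-2 logarithm is used, and genotypes were kept only with ≥10 input reads and ≥1 read per output.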

Row | Variant | polymerase ribozyme fitness (log ratio)
1 | G48C C79A G86U C96U G124A | ≤ -4.2
2 | G48C A60G A91U U127A C131A | ≤ -4.2
3 | A49C C63A G65C C72G G84U U145A | ≤ -4.2
4 | G48C G84U U139A | ≤ -4.2
5 | A49G C85A A115G G140U A150G | ≤ -4.2
6 | A49U U55A U82C A138G | ≤ -4.2
7 | A49C A120G | ≤ -4.2
8 | A49C G71C C85G C123A | ≤ -4.2
9 | A49C G62A C87A G140C | ≤ -4.2
10 | G48U G83C C87U | ≤ -4.2
11 | A49G G65U G67C G124A | ≤ -4.2
12 | A49G G88U A120C | ≤ -4.2
13 | A49G A52C U56A A91G G92A A121G | -3.9
14 | G48U A91G C96U C103U | ≤ -4.2
15 | G48C A110U C118G A119C | ≤ -4.2
16 | A49C C51A A64C C76G A110G A138U | ≤ -4.2
17 | G48C C85G A107C U111A U135G | ≤ -4.2
18 | A49C A142U | ≤ -4.2
19 | A49C G84U A107G U111G A120G | ≤ -4.2
20 | A49G U53A C87G A120G | ≤ -4.2
21 | G48C G68A A113U U148C | ≤ -4.2

Row | Variant | polymerase ribozyme fitness (log ratio)
22 | A49C A110G G152C | ≤ -4.2
23 | A49G C63A G71U G83U A122U A150U | ≤ -4.2
24 | A49C U56A G59A G74U A89G U139A | ≤ -4.2
25 | A49C A64U G67U G68A G71A | ≤ -4.2
26 | G48C C87G | ≤ -4.2
27 | A49C C103G A142C | ≤ -4.2
28 | A49C G81U G94A A115G | ≤ -4.2
29 | A49U C51A A66G C95U C105A | ≤ -4.2
30 | A49C C149A | ≤ -4.2
31 | G48U G86U | -1.58
32 | A49C A138G | ≤ -4.2
33 | G48C C85A C118A | -1.39
34 | G48C G50C G86U G88A U90A G136U | ≤ -4.2
35 | G48U U55G C118G C131U A137C U145A | ≤ -4.2
36 | A49G C76A A115G G117U C129G G136C | ≤ -4.2
37 | G48A C103G A107U A147C | ≤ -4.2
38 | A49C C75A C95U A115U C116U | ≤ -4.2
39 | A49C C85U U104G U145A | ≤ -4.2
40 | A49U G68C | ≤ -4.2
41 | G48C G50C G58A U61A G68C | ≤ -4.2
42 | A49C C51G G88U | ≤ -4.2

Row | Variant | polymerase ribozyme fitness (log ratio)
43 | A49G U53A C93A U127G G143A | ≤ -4.2
44 | A49U U90G G133C U134G U146C | ≤ -4.2
45 | G48A C79U C132U | ≤ -4.2
46 | A49C C57U A119G | ≤ -4.2
47 | A49C C85A C132A G141C | ≤ -4.2
48 | A49C G50U U78G C85U A97G U102G A107U A142C | ≤ -4.2
49 | A49C A91U G94C C132U G136C | ≤ -4.2
50 | G48U U56A U109G C116G C131U A142C | ≤ -4.2
51 | G48C C51G C96A | ≤ -4.2
52 | G48A A73G A110C A121C | ≤ -4.2
53 | G48U C87G U104G U135A | ≤ -4.2
54 | A49U G59A C85A | -3.41
55 | G48A G88A C96A A142U | ≤ -4.2
56 | A49C U82A G100A A107U A110C | ≤ -4.2
57 | G48A G58C U78G G88A C118A U134A A142G | ≤ -4.2
58 | A49C U146G | ≤ -4.2
59 | A49C C108A A110G C118U | ≤ -4.2
60 | A49U G141A | -1.34
61 | A49C U53G U56C A119C | ≤ -4.2
62 | A49U U77C C87A C125A G141C | ≤ -4.2
63 | A49U U77C | ≤ -4.2

Row | Variant | polymerase ribozyme fitness (log ratio)
64 | A49U G50A A60C C75G | ≤ -4.2
65 | A49C C72U C85G G94A A97U | ≤ -4.2
66 | A49C U56A A64U C75G C93U C99G | ≤ -4.2
67 | A49U G50U A52G C93G C99G | ≤ -4.2
68 | A49C U55A G70U G84A A106C C114U A119U G124C G136A | ≤ -4.2
69 | A49C G68A G84U C114A A119U | ≤ -4.2
70 | A49C G80A U82C C87G G94A A119U U134G | ≤ -4.2
71 | G48A A60G G83U G126U U134C | -3.58
72 | A49U C75U A115U C118U | ≤ -4.2
73 | G48C C51A G83A | ≤ -4.2
74 | G48C C96G C103G C105G A106G | -3.96
75 | G48U C99G U101G C108G G124U C125U | ≤ -4.2
76 | G48A G70C C85U A89G U134G | ≤ -4.2
77 | G48C A73G C79G G94U U139C A147C | ≤ -4.2
78 | A49G C76U C96G A98G U127C C149U G152A | ≤ -4.2
79 | A49C U77G A89U A110G C116U | ≤ -4.2
80 | A49U C85U | -2.25
81 | A49U C85A | -1.86
82 | A49C A73G C93U U127A | ≤ -4.2
83 | G48C C54U A60C U102G U111G | ≤ -4.2
84 | G48U U61A G100A C103G C116U G128U U130G | ≤ -4.2
